# Reference: article PMC4336329 (PLoS ONE, 2015)
# About 14,000 (4.5%) of roughly 310,000 compounds showed an effect of 50% or more. Effects have a minus sign here. The list shows a part of the results.
# Biological target: human ether-à-go-go-related gene (hERG) potassium channel (human, UniProt Q12809)
# Test: primary screen, population patch clamp on CHO cells stably expressing hERG
# 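Further: peak tail current of the secondary pulse compared with the same well before compound.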
# human ether-à-go-go-related gene (hERG) potassium channel, sequence (Q12809 whole entry, looked up): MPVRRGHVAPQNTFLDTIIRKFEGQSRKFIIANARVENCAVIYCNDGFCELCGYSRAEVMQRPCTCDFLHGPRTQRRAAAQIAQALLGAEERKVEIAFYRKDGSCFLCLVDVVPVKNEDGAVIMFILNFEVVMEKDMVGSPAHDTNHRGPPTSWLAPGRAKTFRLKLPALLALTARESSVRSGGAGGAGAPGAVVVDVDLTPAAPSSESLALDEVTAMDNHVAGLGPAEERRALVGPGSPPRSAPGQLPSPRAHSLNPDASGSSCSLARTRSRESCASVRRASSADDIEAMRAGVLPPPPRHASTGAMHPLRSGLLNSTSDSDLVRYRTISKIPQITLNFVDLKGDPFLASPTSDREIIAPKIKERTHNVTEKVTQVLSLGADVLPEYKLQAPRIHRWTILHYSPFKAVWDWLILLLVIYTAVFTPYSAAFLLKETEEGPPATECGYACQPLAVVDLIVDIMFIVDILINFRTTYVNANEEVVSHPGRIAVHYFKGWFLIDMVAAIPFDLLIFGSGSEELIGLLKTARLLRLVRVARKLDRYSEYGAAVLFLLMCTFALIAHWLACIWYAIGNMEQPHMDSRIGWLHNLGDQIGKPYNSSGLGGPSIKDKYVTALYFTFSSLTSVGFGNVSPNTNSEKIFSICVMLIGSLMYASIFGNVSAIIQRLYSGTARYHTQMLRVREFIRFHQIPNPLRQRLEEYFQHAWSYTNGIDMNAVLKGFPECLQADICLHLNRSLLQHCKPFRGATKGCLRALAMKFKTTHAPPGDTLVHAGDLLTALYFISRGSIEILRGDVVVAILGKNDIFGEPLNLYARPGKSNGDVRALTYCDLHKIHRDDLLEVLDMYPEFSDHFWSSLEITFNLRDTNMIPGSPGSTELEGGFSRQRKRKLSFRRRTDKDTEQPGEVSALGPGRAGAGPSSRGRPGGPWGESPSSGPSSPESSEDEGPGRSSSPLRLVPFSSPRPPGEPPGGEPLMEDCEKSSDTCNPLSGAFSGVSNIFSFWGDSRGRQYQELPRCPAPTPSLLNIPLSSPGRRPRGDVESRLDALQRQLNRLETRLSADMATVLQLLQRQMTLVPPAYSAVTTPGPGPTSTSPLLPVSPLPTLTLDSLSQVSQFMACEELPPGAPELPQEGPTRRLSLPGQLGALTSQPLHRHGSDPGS
row,SMILES,"hERG current change (%, negative = inhibition) at 10uM"
1,CC1CCCCN1S(=O)(=O)c1ccc(NC(=O)c2ccco2)cc1 (stereo not drawn),-18%
2,COC(=O)c1sccc1N/N=C/c1cccc(OC)c1O,5.91%
3,CCOC(=O)c1ccccc1NC(=O)COC(=O)C1CC(=O)N(c2ccc3c(c2)OCCO3)C1 (stereo not drawn),38.8%
4,COc1ccc(C(C)C)cc1S(=O)(=O)Nc1ccncc1,15.1%
5,CC(=O)Nc1ccc2oc(C)nc2c1,24.6%
6,Cc1ccc(-c2nc3ccccc3[nH]2)cc1N,-1.81%
7,COCCN(CCOC)S(=O)(=O)c1ccc(C(=O)Nc2nc3c(s2)CCc2ccccc2-3)cc1,11.9%
8,Nc1ncnc2nc[nH]c12.O=S(=O)(O)O,7.63%
9,Cc1cc(C(=O)COC(=O)c2cccc(O)c2)c(C)n1C1CC1,6.32%
10,COC(=O)c1nc(-c2ccccc2)oc1N(C)C,2.84%
11,CC1(c2ccccc2)NC(=O)N(CC(=O)NCC2CCCO2)C1=O (stereo not drawn),-0.048%
12,CCc1nnc(NC(=O)CN2CCN(Cc3ccccc3C)CC2)s1,13.3%
13,Cc1cc(NC(=O)c2cccs2)n(-c2nc3ccccc3[nH]2)n1,20.6%
14,COc1ccc(OC(=O)N(C)C)c(CN(C)C)c1.Cl,21.1%
15,CCOc1ccccc1COC(=O)c1cccc(-n2cnnn2)c1,-4.28%
16,Cc1ccc(NC(=O)COC(=O)CCC(=O)c2ccc(Cl)cc2)cc1S(=O)(=O)N(C)C,-1.5%
17,COc1cccc(Nc2nc3ccccc3nc2NS(=O)(=O)c2cccs2)c1,13.5%
18,CC(=O)NC(=S)Nc1cccc2c(C)cc(C)nc12,-0.832%
19,Cc1ccc(-c2cc(-c3ccccc3)nc(NN)n2)cc1,8.23%
20,COc1ccc(-c2ccc3oc(-c4ccc(OC)cc4)c(C#CCO)c3c2)cc1,15.8%
21,COc1ccc(/C=C/C(=O)Nc2cc(C)nn2-c2nc3ccccc3[nH]2)cc1,7.01%
22,O=c1ccc(-c2nc3ccccc3n2Cc2ccc(Cl)cc2)c[nH]1,-76%
23,O=C(COC(=O)C1CCN(c2ccc(C(F)(F)F)cn2)CC1)Nc1ccc(Cl)cn1,1.21%

row,SMILES,"hERG current change (%, negative = inhibition) at 10uM"
1,CCOC(=O)C1CCN(C(=O)c2ccccc2NC(=O)c2ccc(Br)cc2)CC1,-16.7%
2,Nc1ccc2c(c1)C(=O)N(CCCC(=O)O)C2=O,2.02%
3,Cc1ccc(N2CCN(C(=O)NC3CCCCC3)CC2C)cc1 (stereo not drawn),4.09%
4,O=C1CC2C(=O)NCCN2C(=NC(=O)c2ccccc2)N1 (stereo not drawn),22.9%
5,C/C(=N\NP(=S)(c1ccccc1)c1ccccc1)c1ccc(O)cc1O,27.2%
6,CCN1CCN(c2ccc(S(=O)(=O)N3CCCCC3)cc2NC(=O)COc2ccc(F)cc2Cl)CC1,-65.1%
7,COc1cccc(CNc2ccc(F)c(Cl)c2)c1O,-26.5%
8,CCOC(=O)c1c(-c2ccccc2)oc2cc(Br)c(O)c(C=O)c12,16.6%
9,COc1ccc(/C=N/n2cnnc2SCc2ccc(OC)cc2)cc1,5.8%
10,Cc1ccc(S(=O)(=O)N2CCCC(NC(=O)N3CCN(c4ccccc4)CC3)C2)cc1 (stereo not drawn),-33.6%
11,O=C1Nc2ccc(F)cc2C12Nc1ccccc1-c1nnc(SCc3ccccc3Cl)nc1O2 (stereo not drawn),1.27%
12,Cc1ccc(S(=O)(=O)N2CCCC2)cc1C(=O)NCc1ccccc1CN1CCCC1,-52.3%
13,Cl.O=C(CCN1CCc2ccccc2C(O)(c2ccccc2)C1)c1ccc2c(c1)OCCO2 (stereo not drawn),0.662%
14,O=C(NC(=S)NCc1ccccc1)c1ccccc1F,3.19%
15,Cc1cc(C)c(C(=O)CSc2n[nH]c(-c3ccncc3)n2)c(C)c1,8.1%
16,O=c1cc(CN2CCCc3ccccc32)nc2sccn12,-8.72%
17,CCCCCN(C(=O)CCC(=O)OCC(=O)N(CC)C1CCCCC1)c1c(N)n(CCCC)c(=O)[nH]c1=O,13.8%
18,CCOC(=O)CSC1=C(C#N)C(c2ccc(C)s2)CC(=O)N1 (stereo not drawn),-3.86%
19,O=C(CSc1nc2ccccc2[nH]1)NCc1ccco1,-1.16%
20,O=C(NCCCN1CCN(c2cccc(Cl)c2)CC1)c1cccc(N2CCCC2=O)c1,-38%
21,COC(=O)Cc1ccc(NC(=S)N2CCN(c3ccc(OC)cc3)CC2)cc1,4.41%
22,C=C(C)C1CC=C(C)/C(=N/NC(=S)Nc2ccccc2)C1 (stereo not drawn),43%
23,CCOC(=O)CCCCC(=O)c1[nH]c(=O)[nH]c1CSc1nc(C)cc(C)n1,-14.1%

row,SMILES,"hERG current change (%, negative = inhibition) at 10uM"
1,CC(NC(=O)c1ccccc1F)c1nnc(SCC(=O)NC2CCCC2)n1C (stereo not drawn),24.7%
2,O=C(c1cn(-c2ccccc2)nc1-c1ccccc1)N1CCOCC1,-4.6%
3,COc1cc(C(CCN2CCN(c3ccccc3)CC2)c2c(OC)cc(OC)c3ccc(=O)oc23)cc(OC)c1OC (stereo not drawn),-8.86%
4,COc1cc(/C=C2/NC(=O)NC2=O)ccc1OCC(=O)Nc1ccc(F)cc1,33.2%
5,Cc1ccc2nc(NC(=O)C3CSC4(C)CCC(=O)N34)sc2c1 (stereo not drawn),-12%
6,Clc1ccc(-c2[nH]ncc2N=Nc2ccccc2)cc1,15.3%
7,CCCCOC(=O)c1sc2nc(N3CCOCC3)c3c(c2c1N)CC(C)(C)OC3,9.29%
8,COCCNC(=O)C1CCC(CNS(=O)(=O)c2ccccc2)CC1 (stereo not drawn),5.83%
9,CCSc1ncnc2sc3c(c12)CCC3,15.2%
10,COc1cccc(CN2C(=O)c3ccccc3S2(=O)=O)c1,-7.79%
11,O=C(NCCc1csc(-c2ccccc2)n1)c1ccccc1F,-49.5%
12,COc1ccc(C2CC(=O)Nc3cc(C)c(C)cc32)c(OC)c1OC (stereo not drawn),4.45%
13,COC(=O)C1=C(c2ccc(OC)c(OC)c2)C[C@@H]2CC[C@H]1N2C(=O)NCCNC(C)=O,4.98%
14,Cc1cc(C(=O)N(Cc2nnc(-c3ccc(Cl)cc3)o2)C(C)C)c2ccccc2n1,-58.5%
15,Cc1oc(-c2ccccc2)cc1C(=O)Nc1ccccc1,-8.72%
16,Cc1cc(=O)oc2c3c(cc(OCC(=O)N[C@@H](C)C(=O)O)c12)OC(C)(C)CC3,16.5%
17,Cn1cccc1/C=N/NC(=O)Cc1cccs1,6.58%
18,CN(C)S(=O)(=O)N1CCN(c2ccc([N+](=O)[O-])c(N3CCOCC3)c2)CC1,-20.3%
19,Nc1nc(-c2ccccc2)c(-c2ccccc2)n1N,-6.8%
20,Cc1nn(-c2ccccc2)c(C)c1/C=N/NC(=O)c1ccccc1O,-2.48%
21,CCOc1ccc(CN(C)C(=O)c2ccc(NC(=O)CC3SC(N4CCCC4)=NC3=O)cc2)cc1 (stereo not drawn),7.53%
22,O=C(c1nc2ncccn2n1)N1CCN(c2ccccc2)CC1,-2.09%
23,O=C1c2ccccc2C(=O)C1c1ccnc2ccccc12,4.14%

row,SMILES,"hERG current change (%, negative = inhibition) at 10uM"
1,CNC(=O)/C(C#N)=C/c1cccc(Oc2ccccc2)c1,-18.6%
2,COC(CNC(=O)c1ccc2c(=O)n(Cc3ccc(Cl)cc3)c(=S)[nH]c2c1)OC,15.5%
3,O=C(Cc1ccccc1[N+](=O)[O-])NCCc1ccc(F)cc1,0.102%
4,Cc1cc(C(=O)CSc2cccc[n+]2[O-])c(C)n1-c1ccccc1,13.9%
5,O=C1CSC(=Nc2ccc(Cl)cc2)N1,9.39%
6,COc1ccc(NC(=O)c2ccccc2C)cc1,14.9%
7,CN(C)C=O.COc1ccccc1NC(=O)C1=C(C)NC(=O)NC1c1ccccc1[N+](=O)[O-] (stereo not drawn),7.42%
8,N#CCC(=O)NCC1(c2ccccc2)CCCC1,5.21%
9,O=S(=O)(N/N=C/c1ccccc1OCc1ccc(Cl)cc1)c1ccccc1,-4.84%
10,CCOC(=O)N1CCN(Cc2c(NC(=O)c3ccco3)sc(C)c2C)CC1,11.6%
11,C=C(C)COc1ccc(-c2[nH]ncc2Oc2ccccc2OCC)c(O)c1,4.65%
12,O=Cc1ccc(-c2cc(Cl)ccc2Cl)[nH]1,5.9%
13,Cc1cc(C(=O)NCCC(C)C)c2ccccc2n1,10.3%
14,COc1ccc(-c2nnc(SCc3ccccn3)n2C)cc1,-9.22%
15,O=C(NC1CCN(Cc2ccccc2)CC1)c1cncc(Br)c1,-64.1%
16,Cc1nn(-c2ccccc2)c2nc(-c3ccccc3)cc(C(=O)N3CCOCC3)c12,-25.9%
17,COc1ccc(C(CNC(=O)c2cccc(Br)c2)N2CCCC2)cc1 (stereo not drawn),-31.6%
18,O=C(CCNC(=O)C1CCN(S(=O)(=O)c2ccccc2)CC1)NCc1ccc(Cl)cc1,8.88%
19,CSc1nc(-c2ccccc2)c(-c2ccccc2)[nH]1,-2.5%
20,COc1cc(C2CC(c3cccnc3)=NN2c2ccc(F)cc2)cc(OC)c1OC (stereo not drawn),-18.7%
21,Cc1ccc(-c2[nH]n3c(=O)c4c(nc3c2C)CCCC4)cc1,-14.7%
